Measurements reported in the supplement of paper PMC11417369.
± gives the standard deviation of the averaged measurements. The list shows a part of the results.

The sequences below were run on PfAP2-LT AP2 domain (GST-tagged) (assay: gcPBM binding intensity (ln(normalized median fluorescence intensity)); higher = stronger DNA binding).
Method in brief: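 Binding of GST-tagged P. falciparum DNA-binding domains, expressed in E. coli and used at about 25 μg on average, was carried out for 1 h in 1× PBS containing 1% milk, 0.2 mg/ml BSA, 0.5% salmon testes DNA and 0.03% Triton X-100. The target was an Agilent 4 × 180k array of primer-extended double-stranded 36-bp intergenic genomic probes plus negative controls, read with Alexa488 anti-GST antibody at 488 nm. Binding intensity is the highest Masliner-normalised natural-log median intensity across replicate spots of either probe orientation.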

Sequence	gcPBM binding intensity (ln)
TATATATATTTTATATGTACGTATGGAACAATATGA [XGTACX_site8167]	8.59 ± 0.38
TTATTTATTTTTTATACACACAATTATCATTTTAAG [CACACA_site22]	8.82 ± 0.4
TTTTCAATTAATAATACACACATGTATTTATTATTA [CACACA_site5774]	8.78 ± 0.43
AATTATATACATAAGTGTACATAATATATAAACATA [XGTACX_site793]	8.81 ± 0.45
TGTTGTAAATTAAAGACATGCACGTGAGAAAATATA [TGCATGCA_site285]	9.4 ± 0.57
TTAATTAGAAATCATACACACATATAAATAAATATA [CACACA_site6225]	8.82 ± 0.39
TTATTCTGACAGAATTGTACTAATGTCTTTAAAAAA [XGTACX_site1256]	8.21 ± 0.3
TGTGCCTATAAATTAACACACAGAAATATATAGAGA [CACACA_site818]	9.02 ± 0.36
TATTTGTTTGTTCGGGTGCTTACATATATTCTTATA [GTGCAC_site9972]	9.06 ± 0.39
TAAGTTTATTGAAATTGTACAAACATAAATGTAAAA [XGTACX_site162]	8.52 ± 0.49
TTATATTTTTTTTTTTCACACACATTTATATTGTAT [CACACA_site9025]	9.3 ± 0.46
TATACTAAGAAGTATTTACACACCAACAAGGCGAAA [CACACA_site8963]	8.87 ± 0.42
TTATTTTCATATAGGTGTACATAAAAATATTCTTAT [XGTACX_site8861]	8.56 ± 0.56
AAATTAAGTATATATTGTACACATAATATGATTGTA [XGTACX_site3083]	8.66 ± 0.39
ATGTTCATTATATGCACACATATATATAAATGTAAT [CACACA_site2908]	9 ± 0.34
TATCATAAAAAATATACACACAAAGGATATATATAT [CACACA_site1571]	9.05 ± 0.29
ATTTTTCTTTTTAATACACACAAAAGTGATACAAAC [CACACA_site3923]	8.8 ± 0.42
TGTATTATATATACACAAATATTTATGTGTGTGTTT [XGTACX_negctrl_site475]	9.65 ± 0.3
TTTTTTTGTATTTGTTTATTTAATGATAAAATTAAA [CACACA_negctrl_site225]	8.21 ± 0.4

Sequence	gcPBM binding intensity (ln)
AAATAATATTTTTTTTTTTTTTTTTTTTTATGTTAT [CACACA_negctrl_site809]	8.37 ± 0.52
ATACAGTTGCATATGGTGCACGAATAATACACCTAT	9.01 ± 0.42
ATAGTCTTAATGACTACACACCTAACTATGCATGCA [CACACA_site5084]	9.14 ± 0.37
TGGTAGTATATCATAGAAATCATTGTATAACAAATA [XGTACX_negctrl_site569]	8.67 ± 0.48
AAAAAAAAAAAAAAAACACACAAATCATAAATAAAT [CACACA_site478]	8.76 ± 0.52
TTTCGTTCATAAAAAAGTACATATGAGCAAAAGGTA [XGTACX_site8936]	8.69 ± 0.37
GAATTAAAATAATACGTACACACATGTATAATACAT [CACACA_site1004]	9.21 ± 0.29
TATATATATATATATAGTACATATTTATATATGAAA [XGTACX_site8488]	8.98 ± 0.18
ACTAAACTAATATGTACACACATATAACATTAATTT [CACACA_site7128]	9.06 ± 0.41
CACAATACTTTCATCACACATATATATATATATATA [CACACA_site4677]	9.77 ± 0.3
TTGTTCTATTTAAGTAGTACATACACACACATATAC [XGTACX_site8484]	9.52 ± 0.38
ACATATATATATTCTACACACTTATAATATAATACA [CACACA_site2461]	8.86 ± 0.37
AGGTTTCATTTAGCATGTACATATTATAAAAATTGT [XGTACX_site8448]	8.65 ± 0.32
AAGATTACTTATATATGTACACATAATACAAATGTC [XGTACX_site520]	8.89 ± 0.27
AAAAAATTATACCTTTGTACATAAATAAAATATTAT [XGTACX_site418]	8.54 ± 0.42
TATGTATATATTTACGCATGCTACTCTATTTTGAGA [TGCATGCA_site990]	9.06 ± 0.47
ATAACATAAGGAAATACACACATATATAAGTATATA [CACACA_site778]	9.21 ± 0.45
ACCCATTGCTCACGTGCACACATAGAAAAATAATTC [CACACA_site4389]	9.16 ± 0.4
ATAGTATCTGGTAGCTGTACGAGTCGTAGAGTGTAG [XGTACX_site2030]	9.05 ± 0.47

Sequence	gcPBM binding intensity (ln)
TATAATAATAATTATTGTACGATTAGGTTAATTCAT [XGTACX_site1984]	8.49 ± 0.38
AGAAAGGTGGTATTAAAAGAATAACCTATGAATAAA [GTGCAC_negctrl_site325]	8.66 ± 0.62
TATGTATTTTTTAAGTGTACCTATATATATATATAT [XGTACX_site7934]	9.255 ± 0.035
TGGGAAGGGTGGGAAACTTTATCAAAAACTTATTAC [GTGCAC_negctrl_site16]	8.98 ± 0.24
TTTTAGAGTGGTATATATTAATTTTTAATAAAAAAA [CACACA_negctrl_site1652]	7.95 ± 0.45
ATAATATATACTATATGTACATATCTTTTCCTCTTT [XGTACX_site5553]	9.26 ± 0.75
TTTTTCATAAAAAAATAAAAAAAATTAACATAGAAA [XGTACX_negctrl_site11]	8.21 ± 0.39
TGTGCATAAATTTATGCACACATAAAAAAAAAAAAA [CACACA_site8954]	8.91 ± 0.47
AATAAAAGAAGACAGAGTACACAGGTTGTATTTTCC [XGTACX_site7208]	8.96 ± 0.43
TTGTGTAAAGGTATTATTGTATTATTCAAAATAAAA [XGTACX_negctrl_site167]	8.39 ± 0.6
AATATATAATATATATGTACTTATATATAAAAGATA [XGTACX_site7635]	8.76 ± 0.42
ATTTATTAATATCCCAGTACTCATGGGGAATAATGA [XGTACX_site4014]	8.57 ± 0.41
TTTATATAAATTTATTCACACAACTAATTTTTTAAA [CACACA_site4848]	8.17 ± 0.45
TGATAAATTAAAAATTGTACTATTATAATAATATAT [XGTACX_site6615]	8.36 ± 0.48
ACAATAAACATATATACACACACAAAAAAAAAAACA [CACACA_site8033]	9.64 ± 0.33
ATCAAATAGAGACACACACACCTAAACATAAAAGAA [CACACA_site7321]	9.78 ± 0.48
CATATATATTTGTTCACACACACACTAATAAAAAAA [CACACA_site8787]	9.45 ± 0.34
TGGAGGAACCTCATATGTACGTATAAATATATATTT [XGTACX_site5603]	8.76 ± 0.34
